± gives the standard deviation of the averaged measurements. The list shows a part of the results.
Tested on: PfAP2-EXP AP2 domain (GST-tagged)
Test: gcPBM binding intensity (ln(normalized median fluorescence intensity)); higher = stronger DNA binding
Summary of the method: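 DNA-binding domains from P. falciparum, fused to GST and produced in E. coli, were put on an Agilent 4 × 180k double-stranded probe array for 1 h in 1× PBS holding 1% milk, 0.2 mg/ml BSA, 0.5% salmon testes DNA and 0.03% Triton X-100. Probes were primer-extended, 36 bp long and drawn from intergenic genomic regions, with negative controls included. After Alexa488 anti-GST antibody detection and a 488 nm scan, binding intensity was set as the highest Masliner-normalised natural-log median intensity across replicate spots of either probe orientation.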

Sequence | gcPBM binding intensity (ln)
AATATTCAATATAAAGTGCATTATTGTGCCCCTAAT | 8.57 ± 0.17
GTTATACATTTGAAAAGTACTCATGATTTTTTTTTT [XGTACX_site8177] | 8.75 ± 0.45
ATAAAAATCAAAAAAAATACATAATAGTAATAATAA [GTGCAC_negctrl_site481] | 8.55 ± 0.37
TTTTTATTGTTATACTTATATTATTTTATGATTAAA [XGTACX_negctrl_site262] | 8.54 ± 0.45
AAATAATAAAGTATAACACACATATTTATTTATATA [CACACA_site7822] | 8.12 ± 0.46
AAATAGAAAAAATATACACACACTTATTAAATAAAA [CACACA_site3313] | 8.61 ± 0.39
CTGATATATTATTTATCTGAATATATTAATATGTAT [GTGCAC_negctrl_site82] | 8.05 ± 0.33
AAAATTAAAAAAATATGTACTTATGGGTAACATCAT [XGTACX_site5548] | 8.39 ± 0.23
AAAAAATTTTAATATGCATGTAATTTTGCTTTTTCA [TGCATGCA_site1044] | 8.51 ± 0.4
TAATATAGGGGTGTTCAAATAAATTTTGTTATTTTT [CACACA_negctrl_site1203] | 9.05 ± 0.61
AGCACGCACAGACACACACACATATTTATATTTATA [CACACA_site6291] | 8.7 ± 0.45
GATGTGTAAATAAGGATATATAACAATCAACAAAAC [XGTACX_negctrl_site494] | 8.88 ± 0.34
AATAGAAAAAAAAAATGTACAAAATGTTTATAAAAA [XGTACX_site4635] | 8.63 ± 0.47
TCATTTTAAGGAAAAAGTACAAAATAATATGTTCCT [XGTACX_site1903] | 8.35 ± 0.36
ACCTATTTCAAACACACACACACACCCACAAACATA [CACACA_site977] | 8.71 ± 0.4
ACGAATATAGGATGTTTGCACTGTACCAATAAATGA [GTGCAC_site9808] | 8.65 ± 0.27
TTCTTAATACAAATATGTACATATATATATATATAT [XGTACX_site757] | 10.1 ± 0.45
AAATTACCCTTGTGTACACATATATTATCTGTATTA [CACACA_site4514] | 8.83 ± 0.45
AAATGAATATAAAATATACACACTTATATATTGAAT [CACACA_site202] | 8.15 ± 0.35

Sequence | gcPBM binding intensity (ln)
TATTGAAAGTGAATTATAACATTAAAAATATATATA [TGCATGCA_negctrl_site566] | 8.13 ± 0.27
CAATATAAAAGACACACACACAAACATATATTTATA [CACACA_site7697] | 8.71 ± 0.45
TGAATATGTAAATGCACACCAAAAAAAAAAAAAAAA [CACACA_site3566] | 8.56 ± 0.15
GAAGGAAATAAATCAACACACATATATTATAGATAT [CACACA_site7095] | 8.6 ± 0.4
ATAATGTAAAATAAATGTACGCAATATATAAAAAAT [XGTACX_site5747] | 9.06 ± 0.38
TTTTTTTTTATTATCATGCACACATTTTTTTTTTTT [CACACA_site2254] | 8.6 ± 0.38
AAAAAAAAAAAACACACACACACATACAAAATATAT [CACACA_site1448] | 8.64 ± 0.39
ACATATGAATATTTTTGTACGTATATTGTTATTCTT [XGTACX_site4720] | 8.82 ± 0.47
GTAATTTAAATAACAAGTACTAATGTGGATAAGCAG [XGTACX_site1163] | 9.12 ± 0.4
AATTATACGAAATAAAACTTAATAGACAAAAAATTA [CACACA_negctrl_site1384] | 8.6 ± 0.37
ATAATATGCAATATTACACACAATTCATCATTTTTT [CACACA_site7477] | 8.23 ± 0.32
GTATATTTAAATAAAAGTACGTAAAGATATATTTAA [XGTACX_site8087] | 8.57 ± 0.38
AACAAAATAAAACACACACACAAATGTACATATATA [CACACA_site2424] | 8.9 ± 0.49
TAGAAGCATCATTTTACACACATGCAAATGTAAACT [CACACA_site6973] | 8.65 ± 0.35
ATTTTGTATTGACGCTGTACAAACATTAATATAATA [XGTACX_site2496] | 8.48 ± 0.35
TTTTGCGTAGCAACGAGGTTTTTAAAAATGTAACCA [GTGCAC_negctrl_site691] | 8.46 ± 0.49
AAAAGGAACGGACACACACACATATATATATATATA [CACACA_site5894] | 10.2 ± 0.49
TATGCAAATTAATAATGTACGAAATATTTATAATTT [XGTACX_site2324] | 8.35 ± 0.47
AATAAATTAGAAGGATGTACTTTGTTTAATATAGAG [XGTACX_site1943] | 8.55 ± 0.32

Sequence | gcPBM binding intensity (ln)
TAATATAATCTGAGTGCACACAAATAAATAAACATA [CACACA_site8032] | 8.965 ± 0.064
AGGTTATATATGAACAAAAATAAAATATTCATAGGC [TGCATGCA_negctrl_site46] | 8.64 ± 0.38
ATATGTAAAATGAAGATACATACATACATACATACA [CACACA_negctrl_site715] | 9.16 ± 0.21
ATATTATATATATGATGTACTAAATATATTATTATG [XGTACX_site1703] | 8.33 ± 0.35
ATGTTATAAAATATATGTACATATTTATATAAAATA [XGTACX_site5766] | 8.54 ± 0.39
TCTATTAATGAATATACACACATTATATATATATAT [CACACA_site5410] | 10 ± 0.49
TTTATATTCTTTTTTTAACACACAAAAAAAATAAAA [CACACA_site8574] | 8.17 ± 0.42
TATATAAAAAGTAATTGTACATATATATATATATAT [XGTACX_site7953] | 10.1 ± 0.42
ATATATTTATATAAATGTACACGTGAATATATAATA [XGTACX_site1166] | 8.97 ± 0.39
ATAAATAATTAGAATTGTACAAAAATTATATATATG [XGTACX_site5107] | 8.47 ± 0.33
TATTTTATATTATCATGTACAAAAAAAAAGAAAAGA [XGTACX_site5379] | 8.54 ± 0.57
AAACATAAATATGAGAGTACAAAAAATATTATGAAT [XGTACX_site151] | 8.9 ± 0.45
TGAAAAAAAAAATGCACACGCATACATATAATATGT [CACACA_site641] | 8.58 ± 0.45
ATCTCTTAAATTTTACGTACTTATTTTATCTTCTTA [XGTACX_site8877] | 9.02 ± 0.42
TTATAATATATTACAAGTTCATTCATATAATATGTT [CACACA_negctrl_site1695] | 8.28 ± 0.48
AAAAATAAAATATATATATATATATATATATATATA [CACACA_negctrl_site58] | 10 ± 0.46
AATAAATACATACATACATGCATACATATATCTCAA [TGCATGCA_site1040] | 8.68 ± 0.33
TATTTTTATATATATACACACTTACAGATATATATT [CACACA_site5905] | 8.62 ± 0.36
